Data published in PubChem BioAssay AID1030 (National Center for Advancing Translational Sciences (NCATS), 2008).
Out of some 220,000 compounds screened, about 16,000 (7.3%) were called active. Inconclusive results, whose numbers are uncertain, are shown with a selection of clear calls. The call rests on the fitted dose curve; in most records, active means well fitted inhibition curve with a large enough effect (not every such curve was filed as active); inconclusive means small, poorly fitted or top-dose-only effect, or another doubt; inactive means no such curve, though single readings can be large or run the other way. Potencies of inconclusive entries are left out as doubtful fits.

biological target: Aldehyde dehydrogenase 1A1 (Homo sapiens) (UniProt P00352); assay: qHTS Assay for Inhibitors of Aldehyde Dehydrogenase 1 (ALDH1A1); settings: Purified ALDH1A1, NADH fluorescence, propionaldehyde substrate; series mostly up to 75.3 µM; activity, negative = inhibition: at the top concentration;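 on activity, negative = inhibition: plate controls were no enzyme wells and a reference inhibitor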
Potency means the concentration at half of the fitted maximal effect; tags describe the fitted curve by direction and shape.

Chain of UniProt P00352 (P00352 whole entry, looked up): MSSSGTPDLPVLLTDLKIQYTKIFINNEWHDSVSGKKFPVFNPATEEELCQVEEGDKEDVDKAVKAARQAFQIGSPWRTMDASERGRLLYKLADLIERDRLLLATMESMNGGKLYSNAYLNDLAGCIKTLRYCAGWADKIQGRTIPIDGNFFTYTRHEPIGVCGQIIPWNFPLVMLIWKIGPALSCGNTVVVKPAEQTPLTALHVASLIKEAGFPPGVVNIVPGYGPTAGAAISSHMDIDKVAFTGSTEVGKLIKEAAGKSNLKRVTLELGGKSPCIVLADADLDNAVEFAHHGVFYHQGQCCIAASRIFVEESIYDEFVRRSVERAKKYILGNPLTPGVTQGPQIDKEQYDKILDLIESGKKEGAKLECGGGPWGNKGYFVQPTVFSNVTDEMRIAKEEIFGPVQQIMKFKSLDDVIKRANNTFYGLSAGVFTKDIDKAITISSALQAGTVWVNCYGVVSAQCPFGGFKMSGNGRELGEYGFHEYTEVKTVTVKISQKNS

Row | SMILES | Potency | activity, negative = inhibition
1 | COC(=O)c1cc(OC)c(OC)cc1N=CC1=C(O)CC(C)(C)CC1=O | active: 1 µM | 
2 | O=C1N(Cc2cccc(Cl)c2)C[C@@H]2C[C@@H](c3cccc4ncccc34)N3CCC[C@@]123 | inconclusive [inhibitor, single point] | 
3 | CC1=C(C(=O)c2ccccc2)C(c2ccc(N3CCOCC3)cc2)NC(=O)N1 (stereo not drawn) | inconclusive [inhibitor, single point] | 
4 | CN1CCN(C(=S)NC(=O)c2ccco2)CC1 |  | inactive: -15.9%
5 | CCN(CC)C(=O)C(=O)Nc1ccc(Oc2ccccc2)cc1 | inconclusive [inhibitor, single point] | 
6 | CCCCCC(=O)NNC(=O)c1ccc(F)cc1 |  | inactive: 9.11%
7 | COCCNc1ncnc2ccc(-c3cccnc3)cc12 | inconclusive [inhibitor, partial curve] | 
8 | CCOc1ccc(-c2nnc3ccc(SCc4ccc(C(=O)OC)o4)nn23)cc1 | inconclusive [inhibitor, partial curve] | 
9 | CCCn1c(SCC(=O)Nc2cccc(C(=O)OC)c2)nnc1-c1cccnc1 | inconclusive [inhibitor, single point] | 
10 | CC(C)CC(c1nnnn1C1CCCC1)N1CCN(c2ccccc2F)CC1 (stereo not drawn) | inconclusive [inhibitor, single point] | 
11 | COc1ccc(-n2c(=S)[nH]c3cc(C(=O)NCCCN4CCCC4=O)ccc3c2=O)cc1 | active: 17.8 µM | 
12 | CCNC(=S)/N=C(\N)Nc1nc(C)c2cc(C)ccc2n1 | inconclusive [inhibitor, single point] | 
13 | N#CC1=C(N)NC(SCC(=O)O)=C(C#N)C12CCCC2 | active: 5.62 µM | 
14 | O=S(=O)([N-]c1nc2ccccc2nc1-[n+]1ccc(-c2ccncc2)cc1)c1ccccc1 | inconclusive [inhibitor, single point] | 
15 | CCN(CC)c1ccc(NC(=O)c2ccc(NC(=O)C3CCCO3)cc2)c(C)c1 (stereo not drawn) | inconclusive [inhibitor, partial curve] | 
16 | O=C(NC(=S)Nc1cc(S(=O)(=O)N2CCOCC2)ccc1N1CCOCC1)C1CCCC1 |  | inactive: 2.85%
17 | Nc1cccc2c1C(=O)N(C(=O)c1cccc(S(=O)(=O)N3CCCCCC3)c1)C2=O |  | inactive: -12.3%
18 | O=C(N/N=C/c1cc([N+](=O)[O-])ccc1O)Nc1ccccc1 |  | inactive: -11.6%
19 | CCOC(=O)N1CCC(NC(=O)c2cnn3c(C(F)(F)F)cc(-c4cccc(OC)c4)nc23)CC1 | inconclusive [inhibitor, full curve] | 
20 | COc1ccc2c(c1)nc(N)n2Cc1ccccc1 | inconclusive [inhibitor, single point] | 
21 | N#Cc1cc(-c2ccccc2)cnc1Cl | active: 3.55 µM | 
22 | CC1CC(C)(C)NC(=S)N1CCC(=O)N1CCN(c2ccccc2)CC1 (stereo not drawn) | inconclusive [inhibitor, single point] | 
23 | Cc1ccc(NC(=O)C2OCCc3ccccc32)cc1Cl (stereo not drawn) |  | inactive: -17.6%
24 | O=C(NCCO)c1cc2cc(Cl)cc(Cl)c2oc1=O | inconclusive [inhibitor, partial curve] | 

Row | SMILES | Potency | activity, negative = inhibition
25 | COc1ccc(S(=O)(=O)N(C)CC(=O)N2CCN(Cc3ccccc3)CC2)cc1C | active: 15.8 µM | 
26 | Cc1c(C)n(CCc2c[nH]c3ccccc23)ccc1=O |  | inactive: 1.24%
27 | CCOc1ccc(S(=O)(=O)NCc2cccs2)cc1 | inconclusive [inhibitor, single point] | 
28 | CC(=O)Oc1ccc(N(c2ccccc2)S(=O)(=O)c2ccc(C)cc2)cc1 | inconclusive [inhibitor, single point] | 
29 | O=C(O)c1cccc(N/N=C/C2=C(Cl)c3cc(Cl)ccc3SC2)c1 | active: 20 µM | 
30 | COC(C#CCCN(C)C)(c1ccccc1)c1ccccc1 | inconclusive [inhibitor, single point] | 
31 | O=c1cc(-c2ccncc2)oc2ccccc12 |  | inactive: -1.11%
32 | COC(=O)C1CC(=O)N(c2ccc(C)cc2)C1 (stereo not drawn) |  | inactive: 5.1%
33 | COC(=O)c1cc(C(=O)Nc2nnc(CC(C)(C)C)s2)cc([N+](=O)[O-])c1 | active: 25.1 µM | 
34 | Cc1onc(-c2ccccc2Cl)c1C(=O)OCC(=O)c1ccccc1 | inconclusive [inhibitor, single point] | 
35 | C=CCc1cc(Cl)ccc1OCCOCCNCCOC | inconclusive [inhibitor, single point] | 
36 | CC(C)=C1C2C=CC1C1C(=O)N(c3ccc4c(c3)OCO4)C(=O)C21 (stereo not drawn) | active: 3.55 µM | 
37 | CN(C)S(=O)(=O)c1cccc(NC(=S)N/N=C/C(c2ccccc2)c2ccccc2)c1 | active: 10 µM | 
38 | CC(=O)c1ccc(OC(C)C)c(CN2CCCCC2)c1 | inconclusive [inhibitor, single point] | 
39 | Cc1ccc(C)c(Cn2c(C(=O)OC(C)C)cc3c2ccn3C)c1 | inconclusive [inhibitor, single point] | 
40 | CC(C)CCNC(=O)COc1ccc(N(C)S(=O)(=O)c2ccc(F)cc2)cc1 |  | inactive: 10.9%
41 | COc1ccc(-n2c(N3CCN(C)CC3)nc3sc4c(c3c2=O)CCCCC4)cc1 | active: 2.82 µM | 
42 | Cc1cc(C)c2cc(CN(Cc3nnnn3C3CCCCC3)CC3CCCO3)c(=O)[nH]c2c1 (stereo not drawn) | active: 4.47 µM | 
43 | O=C(NCc1nc2ncc(Br)cc2[nH]1)c1ccccc1 | inconclusive [inhibitor, single point] | 
44 | CC(C)Nc1nnc(SCC(=O)Nc2ccc(F)cc2)s1 | inconclusive [inhibitor, single point] | 
45 | CC(C)(C)CC(=O)NC(=S)NCCc1ccccc1 |  | inactive: -2%
46 | O=[N+]([O-])c1cccc(C=Nc2cc3c(cc2Br)OCCO3)c1 | inconclusive [inhibitor, single point] | 
47 | O=C(O)CCC/C=C\C[C@@H]1[C@@H](/C=C/[C@@H](O)COc2cccc(C(F)(F)F)c2)[C@H](O)C[C@@H]1O |  | inactive: 3.24%
48 | Nc1cccc2c(=O)[nH][nH]c(=O)c12 | inconclusive [inhibitor, single point] | 
